Experimental data reported in the supplement of paper PMC12067230.
The data scatter; read single values as rough.
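Note: [psi-pin-] Saccharomyces cerevisiae expressing SupN fusions, induced by 100 µM Cu2SO4, selected 7 d at 30 °C without adenine and uracil, scored by deep sequencing of output versus input.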

Experiment: amyloid nucleation score relative to library mode (yeast Sup35 reporter selection) (log enrichment difference); higher = more amyloid nucleation; sequences are the first 22 residues of the Bri2 peptide extended by up to 12 random residues
Details: random library (experiment): 1;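 active = nucleation score significantly above 0 at FDR 0.05; inactive = not significantly above 0 or absent from output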
For EASNCFAIRHFENKFAVETLICYMNLSFKVVGER, the amyloid nucleation score was 3.19. For EASNCFAIRHFENKFAVETLICYMRAWVLEVTRA, the amyloid nucleation score was 0.474. In the case of EASNCFAIRHFENKFAVETLICYMRDVSKSMFRW, the amyloid nucleation score is reported as “inactive”. For EASNCFAIRHFENKFAVETLICYMRRAWRRLLAR, the amyloid nucleation score was 0.582. With EASNCFAIRHFENKFAVETLICYMVPGVRRRLCR the amyloid nucleation score was “inactive”. EASNCFAIRHFENKFAVETLICYMVSYRREVRRK showed an amyloid nucleation score of -0.568. EASNCFAIRHFENKFAVETLICYN showed an amyloid nucleation score of 3.72. In the case of EASNCFAIRHFENKFAVETLICYNAIQGQWCDVS, the amyloid nucleation score is reported as “inactive”. For EASNCFAIRHFENKFAVETLICYNEV, the amyloid nucleation score was 1.28. Work on EASNCFAIRHFENKFAVETLICYNGLLG yielded an amyloid nucleation score of 6.98. In the case of EASNCFAIRHFENKFAVETLICYNNSMQCNMANA, the amyloid nucleation score is reported as “inactive”. In the case of EASNCFAIRHFENKFAVETLICYNPRSLWGNWCV, the amyloid nucleation score is reported as 6.02. With EASNCFAIRHFENKFAVETLICYNQSQ the amyloid nucleation score was “inactive”. Sequence EASNCFAIRHFENKFAVETLICYNTRSRAGLTLL has an amyloid nucleation score of 3.13. In the case of EASNCFAIRHFENKFAVETLICYPISPHMYKFSD, the amyloid nucleation score is reported as 4.77. In the case of EASNCFAIRHFENKFAVETLICYPRIFLAMVWGQ, the amyloid nucleation score is reported as “inactive”. For EASNCFAIRHFENKFAVETLICYPSFVGVDSGVI, the amyloid nucleation score was “inactive”. Work on EASNCFAIRHFENKFAVETLICYPSYSYMTFCTE yielded an amyloid nucleation score of -0.179. Work on EASNCFAIRHFENKFAVETLICYPTVQEFGPTRL yielded an amyloid nucleation score of 2.86. With EASNCFAIRHFENKFAVETLICYQ the amyloid nucleation score was 2.32. In the case of EASNCFAIRHFENKFAVETLICYQAFVWGWNIWA, the amyloid nucleation score is reported as “inactive”. For EASNCFAIRHFENKFAVETLICYQEMISSPSELG, the amyloid nucleation score was “inactive”. In the case of EASNCFAIRHFENKFAVETLICYQMDECPHLRNE, the amyloid nucleation score is reported as “inactive”. With EASNCFAIRHFENKFAVETLICYQMRAFQWSRAY the amyloid nucleation score was 0.087. EASNCFAIRHFENKFAVETLICYQVGTHNLRLSV showed an amyloid nucleation score of 2.63. For EASNCFAIRHFENKFAVETLICYRALSLCVYFSL, the amyloid nucleation score was “inactive”. In the case of EASNCFAIRHFENKFAVETLICYRCFSRDAVGAQ, the amyloid nucleation score is reported as “inactive”. In the case of EASNCFAIRHFENKFAVETLICYREAGVVLIDCW, the amyloid nucleation score is reported as “inactive”. With EASNCFAIRHFENKFAVETLICYRFYTACRRDVS the amyloid nucleation score was “inactive”. Sequence EASNCFAIRHFENKFAVETLICYRISDNQVKGSW has an amyloid nucleation score of 3.12. In the case of EASNCFAIRHFENKFAVETLICYRKGRVLCVCVR, the amyloid nucleation score is reported as “inactive”. For EASNCFAIRHFENKFAVETLICYRKRVWGEYYSA, the amyloid nucleation score was “inactive”. For EASNCFAIRHFENKFAVETLICYRLACGRTMLFR, the amyloid nucleation score was “inactive”. In the case of EASNCFAIRHFENKFAVETLICYRLFRYFFVCDG, the amyloid nucleation score is reported as “inactive”. EASNCFAIRHFENKFAVETLICYRLISRMSRN gave an amyloid nucleation score of 0.42. In the case of EASNCFAIRHFENKFAVETLICYRMPFMADWWLG, the amyloid nucleation score is reported as “inactive”. Sequence EASNCFAIRHFENKFAVETLICYRMRHIFESCGA has an amyloid nucleation score of 4.47. With EASNCFAIRHFENKFAVETLICYRMSCPDGCTVR the amyloid nucleation score was “inactive”. EASNCFAIRHFENKFAVETLICYRMWHLSGARLQ gave an amyloid nucleation score of 1.13. With EASNCFAIRHFENKFAVETLICYRN the amyloid nucleation score was 2.57. For EASNCFAIRHFENKFAVETLICYRPNR, the amyloid nucleation score was 3.16. With EASNCFAIRHFENKFAVETLICYRQMCNRGMRDS the amyloid nucleation score was “inactive”. Work on EASNCFAIRHFENKFAVETLICYRQSFARDDRGC yielded an amyloid nucleation score of 2.63. In the case of EASNCFAIRHFENKFAVETLICYRRFRLGTLWQE, the amyloid nucleation score is reported as “inactive”. With EASNCFAIRHFENKFAVETLICYRRLCEGPTLRV the amyloid nucleation score was “inactive”. Work on EASNCFAIRHFENKFAVETLICYRRTENCLWLSG yielded an amyloid nucleation score of -0.171. In the case of EASNCFAIRHFENKFAVETLICYRSEGGVDKFAS, the amyloid nucleation score is reported as 3.35. With EASNCFAIRHFENKFAVETLICYRTVCAKHRWSG the amyloid nucleation score was “inactive”. For EASNCFAIRHFENKFAVETLICYRVCVWGVQAKS, the amyloid nucleation score was “inactive”.

Same assay, conditions: random library (experiment): 2
For EASNCFAIRHFENKFAVETLICYMLTILPRSPSN, the amyloid nucleation score was “inactive”. For EASNCFAIRHFENKFAVETLICYMNWRYWAWSVN, the amyloid nucleation score was “inactive”. For EASNCFAIRHFENKFAVETLICYMQRFLNPRMEK, the amyloid nucleation score was “inactive”. For EASNCFAIRHFENKFAVETLICYMRGPFYSYIGH, the amyloid nucleation score was “inactive”. Work on EASNCFAIRHFENKFAVETLICYMSRPGSEPV yielded an amyloid nucleation score of -0.231. For EASNCFAIRHFENKFAVETLICYMVHIYGIDVYR, the amyloid nucleation score was -0.0198. In the case of EASNCFAIRHFENKFAVETLICYMWAKSLWWCNN, the amyloid nucleation score is reported as “inactive”. For EASNCFAIRHFENKFAVETLICYMYWAYRPARFR, the amyloid nucleation score was “inactive”. With EASNCFAIRHFENKFAVETLICYNAVVSYCQAYM the amyloid nucleation score was “inactive”. EASNCFAIRHFENKFAVETLICYNFKHLCSLALV showed an amyloid nucleation score of 3.73. For EASNCFAIRHFENKFAVETLICYNFTEVYTSSPP, the amyloid nucleation score was 5.46. EASNCFAIRHFENKFAVETLICYNGANCFRSGNV gave an amyloid nucleation score of 6.36. In the case of EASNCFAIRHFENKFAVETLICYNGSRCISWVEG, the amyloid nucleation score is reported as “inactive”. In the case of EASNCFAIRHFENKFAVETLICYNGYCQFVLLFR, the amyloid nucleation score is reported as -0.307. For EASNCFAIRHFENKFAVETLICYNKVHQYCAYVH, the amyloid nucleation score was “inactive”. For EASNCFAIRHFENKFAVETLICYNRVNWV, the amyloid nucleation score was 4.79. For EASNCFAIRHFENKFAVETLICYNVRQ, the amyloid nucleation score was 4.38. With EASNCFAIRHFENKFAVETLICYNVSYLAGIIRG the amyloid nucleation score was “inactive”. For EASNCFAIRHFENKFAVETLICYNVVVGGELKR, the amyloid nucleation score was 7.74. In the case of EASNCFAIRHFENKFAVETLICYPFN, the amyloid nucleation score is reported as 6.38. Work on EASNCFAIRHFENKFAVETLICYPGSIGFGTWHL yielded an amyloid nucleation score of 10.1. Sequence EASNCFAIRHFENKFAVETLICYPHKLCFTSKGE has an amyloid nucleation score of 3.23. For EASNCFAIRHFENKFAVETLICYPMAFA, the amyloid nucleation score was “inactive”. In the case of EASNCFAIRHFENKFAVETLICYPV, the amyloid nucleation score is reported as “inactive”. With EASNCFAIRHFENKFAVETLICYPVVPIWAGPR the amyloid nucleation score was 6.13. In the case of EASNCFAIRHFENKFAVETLICYQAVMRDHCHLV, the amyloid nucleation score is reported as 0.423. Work on EASNCFAIRHFENKFAVETLICYQDSIIMGSLG yielded an amyloid nucleation score of 5.89. In the case of EASNCFAIRHFENKFAVETLICYQFQRIRFRHPG, the amyloid nucleation score is reported as 0.536. For EASNCFAIRHFENKFAVETLICYQGSLCHVCMLR, the amyloid nucleation score was “inactive”. In the case of EASNCFAIRHFENKFAVETLICYQLVSRRGQRAL, the amyloid nucleation score is reported as “inactive”. With EASNCFAIRHFENKFAVETLICYQRWERYHVWRR the amyloid nucleation score was “inactive”. Work on EASNCFAIRHFENKFAVETLICYQVATYSSWNLC yielded an amyloid nucleation score of 3.15. Sequence EASNCFAIRHFENKFAVETLICYQYFNDDCVLRW has an amyloid nucleation score of 0.799. In the case of EASNCFAIRHFENKFAVETLICYRARTCHYVTMG, the amyloid nucleation score is reported as “inactive”. Sequence EASNCFAIRHFENKFAVETLICYRGMYFSWCGRC has an amyloid nucleation score of 2.28. EASNCFAIRHFENKFAVETLICYRIVMSWGVRHG gave an amyloid nucleation score of 1.87. For EASNCFAIRHFENKFAVETLICYRKTLPGLVCVS, the amyloid nucleation score was “inactive”. EASNCFAIRHFENKFAVETLICYRLKSGVNQSLF gave an amyloid nucleation score of 4.68. With EASNCFAIRHFENKFAVETLICYRNSSLKPLFLP the amyloid nucleation score was “inactive”. For EASNCFAIRHFENKFAVETLICYRNVYYSSVVLV, the amyloid nucleation score was “inactive”. For EASNCFAIRHFENKFAVETLICYRPESFVGNSFL, the amyloid nucleation score was 5.45. For EASNCFAIRHFENKFAVETLICYRRKNIVRRIG, the amyloid nucleation score was “inactive”. With EASNCFAIRHFENKFAVETLICYRV the amyloid nucleation score was “inactive”. With EASNCFAIRHFENKFAVETLICYRVFLYHMHGLP the amyloid nucleation score was “inactive”.

Same assay, conditions: random library (experiment): 3
For EASNCFAIRHFENKFAVETLICYMSSNRIGNRTR, the amyloid nucleation score was 4.28. For EASNCFAIRHFENKFAVETLICYMVWRVKMGGRS, the amyloid nucleation score was “inactive”. For EASNCFAIRHFENKFAVETLICYNAGVRPVPFGR, the amyloid nucleation score was “inactive”. With EASNCFAIRHFENKFAVETLICYNRTNFASRDWN the amyloid nucleation score was 4.84. EASNCFAIRHFENKFAVETLICYNTVTYCVFIVA showed an amyloid nucleation score of 4.54. Work on EASNCFAIRHFENKFAVETLICYNVYMYFCIVNV yielded an amyloid nucleation score of 5.41. In the case of EASNCFAIRHFENKFAVETLICYPAFRPGLRWTV, the amyloid nucleation score is reported as “inactive”. Work on EASNCFAIRHFENKFAVETLICYPDLNGSPRVAR yielded an amyloid nucleation score of 2.06. For EASNCFAIRHFENKFAVETLICYPFVPVS, the amyloid nucleation score was 0.475. For EASNCFAIRHFENKFAVETLICYPLKMWEWNRSW, the amyloid nucleation score was “inactive”. With EASNCFAIRHFENKFAVETLICYPVRFQCDILGV the amyloid nucleation score was “inactive”. With EASNCFAIRHFENKFAVETLICYPYRNHVPGK the amyloid nucleation score was “inactive”. EASNCFAIRHFENKFAVETLICYQHLGLVIRWLA gave an amyloid nucleation score of 0.702. In the case of EASNCFAIRHFENKFAVETLICYQKRYDPWGMRR, the amyloid nucleation score is reported as “inactive”. Work on EASNCFAIRHFENKFAVETLICYQL yielded an amyloid nucleation score of 7.14. Work on EASNCFAIRHFENKFAVETLICYRCNASLLDSCH yielded an amyloid nucleation score of 4.33. EASNCFAIRHFENKFAVETLICYRGVFCNMYLCV showed an amyloid nucleation score of 7.57. For EASNCFAIRHFENKFAVETLICYRHCTW, the amyloid nucleation score was 5.43. With EASNCFAIRHFENKFAVETLICYRLDRVVHKVFR the amyloid nucleation score was “inactive”. With EASNCFAIRHFENKFAVETLICYRMTFYQAMYLC the amyloid nucleation score was “inactive”. Work on EASNCFAIRHFENKFAVETLICYRMVVN yielded an amyloid nucleation score of 6.43. With EASNCFAIRHFENKFAVETLICYRNCDEY the amyloid nucleation score was “inactive”. For EASNCFAIRHFENKFAVETLICYRRVRYGLNAVT, the amyloid nucleation score was “inactive”. For EASNCFAIRHFENKFAVETLICYRSWMRAGTVND, the amyloid nucleation score was “inactive”. With EASNCFAIRHFENKFAVETLICYRTFEWWLAHAW the amyloid nucleation score was “inactive”. With EASNCFAIRHFENKFAVETLICYRVGV the amyloid nucleation score was “inactive”.
